{"source": "the supplement of paper PMC8728848", "assay_in_all_cases": "glycan array binding signal (z-score within array); higher = stronger binding", "conditions_in_all_cases": "glycan notation: IUPAC condensed, linker removed", "key": {"Fuc(a1-3)GlcNAc": {"biological_target": "Fuc(a1-3)GlcNAc", "summary_of_the_method": "(§1)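 The binding signal is a Z-score computed within each array. Data were drawn from 3228 arrays in the Consortium for Functional Glycomics database, restricted to those with a known protein sequence. Scores were averaged over arrays of the same protein sequence at different concentrations or buffers, and over linkers, and negative values can be taken as non-binding.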"}, "[1]": {"biological_target": "Fuc(a1-3)[Gal(b1-4)]Glc6S", "summary_of_the_method": "as §1"}, "[2]": {"biological_target": "Fuc(a1-3)[Gal(b1-4)]GlcNAc", "summary_of_the_method": "as §1"}, "[3]": {"biological_target": "Fuc(a1-3)[Gal(b1-4)]GlcNAc(b1-2)Man", "summary_of_the_method": "as §1"}, "[4]": {"biological_target": "Fuc(a1-3)[Gal(b1-4)]GlcNAc(b1-2)Man(a1-3)[Fuc(a1-3)[Gal(b1-4)]GlcNAc(b1-2)Man(a1-6)]Man(b1-4)GlcNAc(b1-4)GlcNAc", "summary_of_the_method": "as §1"}, "[5]": {"biological_target": "Fuc(a1-3)[Gal(b1-4)]GlcNAc(b1-2)Man(a1-3)[Fuc(a1-3)[Gal(b1-4)]GlcNAc(b1-2)Man(a1-6)]Man(b1-4)GlcNAc(b1-4)[Fuc(a1-6)]GlcNAc", "summary_of_the_method": "as §1"}, "[6]": {"biological_target": "Fuc(a1-3)[Gal(b1-4)]GlcNAc(b1-3)Gal(b1-3)[Fuc(a1-4)]GlcNAc", "summary_of_the_method": "as §1"}, "[7]": {"biological_target": "Fuc(a1-3)[Gal(b1-4)]GlcNAc(b1-3)Gal(b1-4)[Fuc(a1-3)]GlcNAc", "summary_of_the_method": "as §1"}, "[8]": {"biological_target": "Fuc(a1-3)[Gal(b1-4)]GlcNAc(b1-3)Gal(b1-4)[Fuc(a1-3)]GlcNAc(b1-3)Gal(b1-4)[Fuc(a1-3)]GlcNAc", "summary_of_the_method": "as §1"}, "[9]": {"biological_target": "Fuc(a1-3)[Gal(b1-4)]GlcNAc(b1-3)GalNAc", "summary_of_the_method": "as §1"}, "[10]": {"biological_target": "Fuc(a1-3)[Gal(b1-4)]GlcNAc(b1-6)GalNAc", "summary_of_the_method": "as §1"}, "[11]": {"biological_target": "Fuc(a1-3)[Gal(b1-4)]GlcNAc(b1-6)[Gal(b1-3)GlcNAc(b1-3)]Gal(b1-4)Glc", "summary_of_the_method": "as §1"}, "[12]": {"biological_target": "Fuc(a1-3)[Gal(b1-4)]GlcNAc6S", "summary_of_the_method": "as §1"}, "[13]": {"biological_target": "Fuc(a1-3)[Gal3S(b1-4)]Glc", "summary_of_the_method": "as §1"}, "[14]": {"biological_target": "Fuc(a1-3)[Gal3S(b1-4)]GlcNAc", "summary_of_the_method": "as §1"}, "[15]": {"biological_target": "Fuc(a1-3)[Gal3S(b1-4)]GlcNAc6S", "summary_of_the_method": "as §1"}, "[16]": {"biological_target": "Fuc(a1-3)[GalNAc(b1-4)]GlcNAc", "summary_of_the_method": "as §1"}, "[17]": {"biological_target": "Fuc(a1-3)[GalNAc(b1-4)]GlcNAc6S", "summary_of_the_method": "as §1"}, "Fuc(a1-4)GlcNAc": {"biological_target": "Fuc(a1-4)GlcNAc", "summary_of_the_method": "as §1"}, "Fuc(b1-3)GlcNAc": {"biological_target": "Fuc(b1-3)GlcNAc", "summary_of_the_method": "as §1"}, "Gal(a1-2)Gal": {"biological_target": "Gal(a1-2)Gal", "summary_of_the_method": "as §1"}, "Gal(a1-3)Gal": {"biological_target": "Gal(a1-3)Gal", "summary_of_the_method": "as §1"}, "Gal(a1-3)Gal(b1-3)GlcNAc": {"biological_target": "Gal(a1-3)Gal(b1-3)GlcNAc", "summary_of_the_method": "as §1"}, "[18]": {"biological_target": "Gal(a1-3)Gal(b1-3)GlcNAc(b1-2)Man", "summary_of_the_method": "as §1"}, "[19]": {"biological_target": "Gal(a1-3)Gal(b1-3)GlcNAc(b1-2)Man(a1-3)[Gal(a1-3)Gal(b1-3)GlcNAc(b1-2)Man(a1-6)]Man(b1-4)GlcNAc(b1-4)GlcNAc", "summary_of_the_method": "as §1"}, "[20]": {"biological_target": "Gal(a1-3)Gal(b1-3)GlcNAc(b1-3)GalNAc", "summary_of_the_method": "as §1"}, "[21]": {"biological_target": "Gal(a1-3)Gal(b1-3)GlcNAc(b1-6)GalNAc", "summary_of_the_method": "as §1"}, "[22]": {"biological_target": "Gal(a1-3)Gal(b1-3)[Fuc(a1-4)]GlcNAc(b1-2)Man(a1-3)[Gal(a1-3)Gal(b1-3)[Fuc(a1-4)]GlcNAc(b1-2)Man(a1-6)]Man(b1-4)GlcNAc(b1-4)GlcNAc", "summary_of_the_method": "as §1"}, "Gal(a1-3)Gal(b1-4)Glc": {"biological_target": "Gal(a1-3)Gal(b1-4)Glc", "summary_of_the_method": "as §1"}, "Gal(a1-3)Gal(b1-4)GlcNAc": {"biological_target": "Gal(a1-3)Gal(b1-4)GlcNAc", "summary_of_the_method": "as §1"}, "[23]": {"biological_target": "Gal(a1-3)Gal(b1-4)GlcNAc(b1-2)Man", "summary_of_the_method": "as §1"}, "[24]": {"biological_target": "Gal(a1-3)Gal(b1-4)GlcNAc(b1-2)Man(a1-3)[Gal(a1-3)Gal(b1-4)GlcNAc(b1-2)Man(a1-6)]Man(b1-4)GlcNAc(b1-4)GlcNAc", "summary_of_the_method": "as §1"}, "[25]": {"biological_target": "Gal(a1-3)Gal(b1-4)GlcNAc(b1-3)GalNAc", "summary_of_the_method": "as §1"}, "[26]": {"biological_target": "Gal(a1-3)Gal(b1-4)GlcNAc(b1-6)GalNAc", "summary_of_the_method": "as §1"}, "[27]": {"biological_target": "Gal(a1-3)Gal(b1-4)[Fuc(a1-3)]GlcNAc", "summary_of_the_method": "as §1"}, "[28]": {"biological_target": "Gal(a1-3)Gal(b1-4)[Fuc(a1-3)]GlcNAc(b1-2)Man(a1-3)[Gal(a1-3)Gal(b1-4)[Fuc(a1-3)]GlcNAc(b1-2)Man(a1-6)]Man(b1-4)GlcNAc(b1-4)GlcNAc", "summary_of_the_method": "as §1"}, "Gal(a1-3)GalNAc": {"biological_target": "Gal(a1-3)GalNAc", "summary_of_the_method": "as §1"}, "[29]": {"biological_target": "Gal(a1-3)[Gal(a1-4)]Gal(b1-4)GlcNAc", "summary_of_the_method": "as §1"}, "[30]": {"biological_target": "Gal(a1-4)Gal(b1-3)GlcNAc(b1-2)Man(a1-3)[Gal(a1-4)Gal(b1-3)GlcNAc(b1-2)Man(a1-6)]Man(b1-4)GlcNAc(b1-4)GlcNAc", "summary_of_the_method": "as §1"}, "Gal(a1-4)Gal(b1-4)Glc": {"biological_target": "Gal(a1-4)Gal(b1-4)Glc", "summary_of_the_method": "as §1"}, "Gal(a1-4)Gal(b1-4)GlcNAc": {"biological_target": "Gal(a1-4)Gal(b1-4)GlcNAc", "summary_of_the_method": "as §1"}, "[31]": {"biological_target": "Gal(a1-4)Gal(b1-4)GlcNAc(b1-2)Man(a1-3)[Gal(a1-4)Gal(b1-4)GlcNAc(b1-2)Man(a1-6)]Man(b1-4)GlcNAc(b1-4)GlcNAc", "summary_of_the_method": "as §1"}, "[32]": {"biological_target": "Gal(a1-4)Gal(b1-4)GlcNAc(b1-3)Gal(b1-4)Glc", "summary_of_the_method": "as §1"}, "Gal(a1-4)GlcNAc": {"biological_target": "Gal(a1-4)GlcNAc", "summary_of_the_method": "as §1"}, "Gal(a1-6)Glc": {"biological_target": "Gal(a1-6)Glc", "summary_of_the_method": "as §1"}}, "note": "The other results are listed elsewhere or left out.", "data": [{"binder": "PX9961X-pdi-531-24-531 (Parabacteroides distasonis) (protein) DLTEEIHSSVIAENYYNNAGEVMAAMMRPWGHFCGTMQVAQSPWSCNELSSDCAAWPQKGRHGYDNGDWIRLHRHQWIPTDGQVVDAWKKLFEGIGYANNFLTDTENIDFEALQVPMSKAQAQAEMRVYRAYCYWYVMDMFGTAPICEKIGEINPSSKSRAELFAWIEKELNESIPSLSESKTETYGRVSKWGAYALLARLYLNAEIYTGQARWDDCIAACDELAKGGFALDKKWNDTFRADNDKRSTEIIWSIVYDEVYAKGMGWYQRWLHYAHQTGWDLQSGPWNGLVTQPTFYDSFADNDLRKIEGFLIGKQYPRKVDENGNYYYDTTAEPLKGSEEYNGQDLVFVNYIKSMTEGEENSGARSIKYEIQPGTTGDMNNDWVMFRYSEVIYNKAEALMRKNGGKATQEVVDMINSVRQRSFKAEDWEKAKYTTATLTMDEFLAEKGREFAFEGIRRTDLVRFNKFVTTSWWDKTASNEPKRNIFPIPQRQLDANANLSPNEANSLF", "values": [{"measurement": "glycan array binding signal (z-score)", "setting": "Fuc(a1-3)GlcNAc", "result": -0.392}, {"measurement": "glycan array binding signal (z-score)", "setting": "[1]", "result": 0.852}, {"measurement": "glycan array binding signal (z-score)", "setting": "[2]", "result": -0.632}, {"measurement": "glycan array binding signal (z-score)", "setting": "[3]", "result": -0.722}, {"measurement": "glycan array binding signal (z-score)", "setting": "[4]", "result": -0.76}, {"measurement": "glycan array binding signal (z-score)", "setting": "[5]", "result": 0.695}, {"measurement": "glycan array binding signal (z-score)", "setting": "[6]", "result": 0.132}, {"measurement": "glycan array binding signal (z-score)", "setting": "[7]", "result": -0.525}, {"measurement": "glycan array binding signal (z-score)", "setting": "[8]", "result": 0.016}, {"measurement": "glycan array binding signal (z-score)", "setting": "[9]", "result": -0.752}, {"measurement": "glycan array binding signal (z-score)", "setting": "[10]", "result": 0.157}, {"measurement": "glycan array binding signal (z-score)", "setting": "[11]", "result": -0.143}, {"measurement": "glycan array binding signal (z-score)", "setting": "[12]", "result": 0.02}, {"measurement": "glycan array binding signal (z-score)", "setting": "[13]", "result": 0.374}, {"measurement": "glycan array binding signal (z-score)", "setting": "[14]", "result": -0.162}, {"measurement": "glycan array binding signal (z-score)", "setting": "[15]", "result": -0.332}, {"measurement": "glycan array binding signal (z-score)", "setting": "[16]", "result": -0.216}, {"measurement": "glycan array binding signal (z-score)", "setting": "[17]", "result": 0.062}, {"measurement": "glycan array binding signal (z-score)", "setting": "Fuc(a1-4)GlcNAc", "result": -0.106}, {"measurement": "glycan array binding signal (z-score)", "setting": "Fuc(b1-3)GlcNAc", "result": -0.274}, {"measurement": "glycan array binding signal (z-score)", "setting": "Gal(a1-2)Gal", "result": -0.905}, {"measurement": "glycan array binding signal (z-score)", "setting": "Gal(a1-3)Gal", "result": 0.005}, {"measurement": "glycan array binding signal (z-score)", "setting": "Gal(a1-3)Gal(b1-3)GlcNAc", "result": -0.509}, {"measurement": "glycan array binding signal (z-score)", "setting": "[18]", "result": 0.703}, {"measurement": "glycan array binding signal (z-score)", "setting": "[19]", "result": 3.82}, {"measurement": "glycan array binding signal (z-score)", "setting": "[20]", "result": -0.241}, {"measurement": "glycan array binding signal (z-score)", "setting": "[21]", "result": -0.644}, {"measurement": "glycan array binding signal (z-score)", "setting": "[22]", "result": 1.94}, {"measurement": "glycan array binding signal (z-score)", "setting": "Gal(a1-3)Gal(b1-4)Glc", "result": 0.702}, {"measurement": "glycan array binding signal (z-score)", "setting": "Gal(a1-3)Gal(b1-4)GlcNAc", "result": -0.035}, {"measurement": "glycan array binding signal (z-score)", "setting": "[23]", "result": -0.389}, {"measurement": "glycan array binding signal (z-score)", "setting": "[24]", "result": 0.935}, {"measurement": "glycan array binding signal (z-score)", "setting": "[25]", "result": -0.006}, {"measurement": "glycan array binding signal (z-score)", "setting": "[26]", "result": -0.439}, {"measurement": "glycan array binding signal (z-score)", "setting": "[27]", "result": -0.393}, {"measurement": "glycan array binding signal (z-score)", "setting": "[28]", "result": -0.568}, {"measurement": "glycan array binding signal (z-score)", "setting": "Gal(a1-3)GalNAc", "result": -0.345}, {"measurement": "glycan array binding signal (z-score)", "setting": "[29]", "result": 7.26}, {"measurement": "glycan array binding signal (z-score)", "setting": "[30]", "result": 0.46}, {"measurement": "glycan array binding signal (z-score)", "setting": "Gal(a1-4)Gal(b1-4)Glc", "result": 0.003}, {"measurement": "glycan array binding signal (z-score)", "setting": "Gal(a1-4)Gal(b1-4)GlcNAc", "result": -0.18}, {"measurement": "glycan array binding signal (z-score)", "setting": "[31]", "result": 0.807}, {"measurement": "glycan array binding signal (z-score)", "setting": "[32]", "result": -0.094}, {"measurement": "glycan array binding signal (z-score)", "setting": "Gal(a1-4)GlcNAc", "result": -0.121}, {"measurement": "glycan array binding signal (z-score)", "setting": "Gal(a1-6)Glc", "result": -0.045}]}]}
